For 73 sequences, binding signal (log2 normalized intensity) results are on record in publication PMC10726135.

The list shows a part of the results. At the low end of the ranking the order means little. Measured with an extract: partners may take part in the binding.

The target of the test is T1, HNF4alpha2 (COS-7 nuclear extract) (UniProt P41235).
T1 sequence: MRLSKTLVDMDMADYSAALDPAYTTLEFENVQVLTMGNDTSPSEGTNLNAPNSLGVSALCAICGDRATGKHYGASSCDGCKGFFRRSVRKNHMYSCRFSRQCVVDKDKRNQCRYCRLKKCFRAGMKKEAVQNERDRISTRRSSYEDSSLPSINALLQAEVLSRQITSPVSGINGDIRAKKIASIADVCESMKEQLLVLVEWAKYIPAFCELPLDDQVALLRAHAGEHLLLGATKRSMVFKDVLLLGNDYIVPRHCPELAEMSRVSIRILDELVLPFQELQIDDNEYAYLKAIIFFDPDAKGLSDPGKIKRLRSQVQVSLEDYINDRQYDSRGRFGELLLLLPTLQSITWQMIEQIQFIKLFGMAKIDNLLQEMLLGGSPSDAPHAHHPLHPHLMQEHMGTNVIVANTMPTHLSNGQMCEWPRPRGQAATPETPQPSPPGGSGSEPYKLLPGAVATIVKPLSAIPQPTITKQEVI
In words: protein-binding microarray. The following applies: COS-7 nuclear extract on double-stranded Agilent 4x180k PBM; binding buffer, salt, pH and temperature not given; high values mean tight binding; double strand, one strand shown; sequences stand for … in …GCCTAGGGAGATTAGAGTATCGGTCGA
On to AGTCACTATCACCTCTCCCACCTGAATTAT, for which the binding signal (log2 normalized intensity) was found to be 2.73.
The same measure for CATTATAAGTTGTCCTAGGAAGCAACAGAC: 0.752; for ACAGCTAGCAGGTGACAAATCCAGGATCAA: -1.01.
The same measure for TGTAATAAGGAGTTGTGTGATAAGGAGGGC: 0.534; for GGGGGGACGCGCTTGGGCGACGGACGCGCC: -1.11; for ACAATTCTTCCTTCATCTGGAGACAAATGC: 1.11.
With CTGCAGCGCCACATTCTGAGCCAGCACTTC, the binding signal (log2 normalized intensity) was -1.1.
The same measure for TAACTTACAGTGCACTTTGACCGCTCATTT: 5.83; for GCCAAGGAAGCGATGGGCTGGCCCTGAGCC: -1.1.
Turning to AGGAAACAAGGGTACCAACAGGTCCAAGGT, the binding signal (log2 normalized intensity) was -0.365.
With TGCAATTTGTTCTTTCTCCAACTGCTCCTC the figure was 0.946.
The same measure for AATTCTCATGGAGGACTTTGGCCTTTTGTG: 5.77.
Consider CCTAAACAGTTACCGAGAGGTAACTCCCCC, for which the binding signal (log2 normalized intensity) was 2.86.
With ACACATGCCCCTTCCCTCCCTGCAATGGCC the figure was 4.02; with TCCTCTTCAACTGATTCTTGCTTCGCTCTC, -0.909.
Regarding TTAAATCCTATCCTAGGGTTAAAGTCTACA, the binding signal (log2 normalized intensity) came out at 4.31.
With CCACCAGCTGCTTCGGCCAGCACAGGAGGC, the binding signal (log2 normalized intensity) was -1.23.
Regarding CTTAGACAACACACCACCTGCTACTCCCTT, the binding signal (log2 normalized intensity) is -1.14.
With GAACCGTTAGCAACCGGAAGTGGCTAGAGG the figure was -1.27.
As to AGGTCAAGCAATGCTGGGGACCTTTGGCCT, the binding signal (log2 normalized intensity) is 6.
The same measure for TCTACCTGACCTCCCAAAATTCTTCACATA: -0.0778; for GGGTCAATTAGCTTGAGCGAGACAGCGGGT: -0.42.
For CCCTTGCTCTGTTTTCTGACGCAACAGAAA, the binding signal (log2 normalized intensity) was 0.154.
With GGCATCAGCCCCAATGGCTAAGGTCACCAT the figure was 2.73; with CCCCAGTTCCCTGGGTCGCCAAGCCGGAGG, -1.11; with GAGGCCTAGGCAGTCCACAGACAAAGGCCC, -1.03.
On to TAAACCAACTATAGAAAGCCTTTGAACTGT, for which the binding signal (log2 normalized intensity) turned out to be 2.14.
As for TTATCTCTGTAAAAGCCAGCATTTCTGTGG, the binding signal (log2 normalized intensity) was 1.32.
The same measure for ATGAGGATACTGATAACATGAGGTAGAGGG: -0.983; for AGATGCCGTCGGCACACACGCATGGCCGGC: -1.17.
For the sequence CGCCCCCAACGGGCCACGCCCTGCACCCTA, the binding signal (log2 normalized intensity) amounted to 3.97.
The same measure for ATGTTGTCCCTGCCCTTTGTCCAGGGTGAG: 2.9; for GGGCCTCTGAGATAAGGGTTCAAACTCAGT: 1.31.
With TTTCTAAGGACACAACAGAATGTGACTGCC, the binding signal (log2 normalized intensity) was -0.313.
With CATCCAAGGACTTTGTAATCATATTGATAA the figure was 2.01; with GTGCAGTTTTTCTGCCGAAGATATTTAACC, 0.0759.
Regarding AATTCCAAAGTTCAAGTAGAGCTTCACCTC, the binding signal (log2 normalized intensity) turned out to be 3.01.
Turning to GCTCATCCATTTTCCTCTGAAAATCATTCA, the binding signal (log2 normalized intensity) was -1.13.
With TTTGTCTTAGGGGGTCTGGTTTCTAGGTAG the figure was 1.34.
Regarding GAGGGCTCTGTCTGCTGGGCCTTCAGCTTG, the binding signal (log2 normalized intensity) was -1.02.
With GGGCAAATCTGAGGTCAAAGCTGTCAGAGA the figure was -0.198; with GGCAGACAGGTTGGAGACGCAGAGAAGCAC, -1.06.
The same measure for AGCTGACAGATGGTGACCAGACTACCTCTT: -0.921; for TCATCGCACCGGCAGGGGAGAACTTCCTCC: -0.988; for TTCCTCCCTCCCTCTTCCCTCATATAATTT: 2.52.
With TACTTACAGACTTTCAACATTATGAAATCT the figure was -1.14; with ACAAAAGAAAATGTGCCCTTTGGACAGAAA, 5.13.
As to GCCACCCTCTGGCCACCAGTTATTCATGTC, the binding signal (log2 normalized intensity) is 1.1.
For the sequence GATAATATAGTCACTATACAACTAGGCTAC, the binding signal (log2 normalized intensity) is -1.09.
The same measure for TCAGTTTTGCCATCAGCTCCCTCCCCTGGT: 3.53.
Regarding AATAGCCCCAAATTCCTTTCAAACTGTATT, the binding signal (log2 normalized intensity) turned out to be 1.63.
The same measure for CATTTGCCATTTCTGAGCAAATATTTGGGG: 1.24.
For the sequence CAGTTAAGCAGGTTCACATTTTTGTCATCT, the binding signal (log2 normalized intensity) amounted to 0.953.
The same measure for GGAGGGCGGGGAGTCTCCTGGGTAATCACC: -1.08; for AGGTAAAGGCATGCTTGGCATCCCTGTGGT: -0.719.
The same measure for TCAGGCACAGCTCGACCTTTGACCTTCGGC: 10.2; for CCATGCCATGCATTTCAGAATTTTGCTCTG: -0.519.
With GAACCAAGATATGCTAACATCCCTTGCAGA, the binding signal (log2 normalized intensity) is -1.18.
As to ACCTTCCAGACAGAGAGGTCAGCAAATGTG, the binding signal (log2 normalized intensity) was 1.07.
With GAACGCTTGTGATTACACTGGGCTCACCTG the figure was -0.974; with GGACTAAATTCTGCGGCGGAAGGACACAGA, -1.04.
The same measure for ACAGTTACCGAGAGGTAACTCCCCCTTCAT: 2.84; for GGGAATCAGTCCATAAATACACAATCTGAA: -0.859; for GCTGAAGTTCCCAGCCCTTCACCAGAGCCG: -0.479.
For the sequence AGGGTAGTTTGGAGATGCCGTTAAGCAGAT, the binding signal (log2 normalized intensity) is 0.555.
For GTGTTTAATGTTTTCATTCTGATTTGCACA, the binding signal (log2 normalized intensity) is 0.839.
With CCCCAGTAACAAAGGAAAGAGCTAACATAT the figure was -1.19.
On to TCAACTATTTAAATAGCTCAAGCCTGTTCC, for which the binding signal (log2 normalized intensity) is -1.04.
For CGATAAACCCAGGCAATGACTCCAAAGTTC, the binding signal (log2 normalized intensity) was found to be 2.05.
The same measure for GCTCGTGTCATCTCTGGCTAACAGGTCAGG: 1.85; for AGTCCAAAGGTCAGCCGGGGAAGGTGCAGG: 5; for CTTTGTCCTAGTGCATGCTGGGAGTCGGGC: 0.806.
With CCAGTGAGTGCAGCAGTGTACTTGAGCTTC the figure was -0.0304.
